Experimental data: publication PMC4150796
These are yes or no findings as the source states them, for the method shown. Binding seen in cells or lysates may run through a third protein. Some binding calls cover weakened binding; strength is not graded here. For some of these results: Sequences can lack the tags named with a protein.

T1: endogenous MIZ-1 of lymphoblastoid cell lines (human (endogenous in LCL)) (UniProt Q13105)
T1 sequence: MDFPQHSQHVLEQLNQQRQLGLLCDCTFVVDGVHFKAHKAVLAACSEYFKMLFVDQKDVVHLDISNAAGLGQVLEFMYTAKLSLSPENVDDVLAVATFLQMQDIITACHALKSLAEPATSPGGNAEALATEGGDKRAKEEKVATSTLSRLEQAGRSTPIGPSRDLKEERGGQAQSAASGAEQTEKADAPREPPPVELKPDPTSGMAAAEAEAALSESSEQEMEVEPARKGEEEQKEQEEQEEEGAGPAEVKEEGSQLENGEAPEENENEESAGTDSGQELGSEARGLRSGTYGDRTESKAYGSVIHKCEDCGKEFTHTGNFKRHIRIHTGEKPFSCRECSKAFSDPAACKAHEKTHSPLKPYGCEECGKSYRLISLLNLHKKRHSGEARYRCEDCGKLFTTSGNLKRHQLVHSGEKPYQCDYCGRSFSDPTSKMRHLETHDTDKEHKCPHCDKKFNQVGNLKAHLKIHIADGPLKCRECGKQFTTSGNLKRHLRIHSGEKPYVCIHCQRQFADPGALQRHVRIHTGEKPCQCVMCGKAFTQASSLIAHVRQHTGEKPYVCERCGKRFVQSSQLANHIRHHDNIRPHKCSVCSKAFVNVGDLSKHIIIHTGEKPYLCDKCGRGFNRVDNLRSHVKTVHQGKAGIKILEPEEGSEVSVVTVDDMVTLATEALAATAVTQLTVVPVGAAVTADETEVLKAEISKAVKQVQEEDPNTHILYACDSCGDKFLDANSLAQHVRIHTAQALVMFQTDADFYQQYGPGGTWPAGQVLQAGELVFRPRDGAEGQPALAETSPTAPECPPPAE

T2: Flag-EBNA3A (Epstein–Barr virus) (UniProt P12977)
T2 sequence: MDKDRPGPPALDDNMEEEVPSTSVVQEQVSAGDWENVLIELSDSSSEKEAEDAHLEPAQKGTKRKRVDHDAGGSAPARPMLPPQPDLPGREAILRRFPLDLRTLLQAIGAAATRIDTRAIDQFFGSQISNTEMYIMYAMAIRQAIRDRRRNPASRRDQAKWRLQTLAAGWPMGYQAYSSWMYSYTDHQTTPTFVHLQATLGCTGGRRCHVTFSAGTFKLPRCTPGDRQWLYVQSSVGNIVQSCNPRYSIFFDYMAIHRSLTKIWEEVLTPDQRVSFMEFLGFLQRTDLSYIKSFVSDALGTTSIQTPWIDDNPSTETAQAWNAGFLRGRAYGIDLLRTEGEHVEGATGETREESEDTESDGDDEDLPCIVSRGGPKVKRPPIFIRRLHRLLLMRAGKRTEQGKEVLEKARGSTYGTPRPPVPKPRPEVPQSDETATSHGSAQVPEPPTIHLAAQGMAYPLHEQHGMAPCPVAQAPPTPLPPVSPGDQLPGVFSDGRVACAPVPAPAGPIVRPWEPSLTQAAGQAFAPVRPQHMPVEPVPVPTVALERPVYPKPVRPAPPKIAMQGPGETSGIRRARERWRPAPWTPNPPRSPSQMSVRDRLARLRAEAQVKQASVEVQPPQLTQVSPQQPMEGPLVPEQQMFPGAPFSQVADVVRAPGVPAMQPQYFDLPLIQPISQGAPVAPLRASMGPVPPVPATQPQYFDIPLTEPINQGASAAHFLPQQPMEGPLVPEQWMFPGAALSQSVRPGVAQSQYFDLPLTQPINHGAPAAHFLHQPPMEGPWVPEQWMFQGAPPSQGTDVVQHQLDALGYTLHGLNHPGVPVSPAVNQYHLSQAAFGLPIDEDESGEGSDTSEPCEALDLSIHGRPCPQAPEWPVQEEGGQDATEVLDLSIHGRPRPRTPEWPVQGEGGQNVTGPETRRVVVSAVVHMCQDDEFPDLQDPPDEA


Key:
[1] = target: T1, endogenous MIZ-1 of lymphoblastoid cell lines (human (endogenous in LCL)); assay: oligonucleotide pull-down; data not shown; oligo pull-down as for EBNA3A
[2] = target: Flag-EBNA3C (Epstein–Barr virus) (UniProt P03204); assay: co-IP
[3] = target: T2, Flag-EBNA3A (Epstein–Barr virus); assay: co-IP
[4] = target: Flag-EBNA3B (Epstein–Barr virus) (UniProt P03203); assay: co-IP

Molecule	binding [1]	binding [2]	binding [3]	binding [4]
endogenous EBNA3C of a lymphoblastoid cell line (from UniProt P03204 1-992)	binds	–	–	–
full-length MIZ-1 (FL-MIZ-1) tagged with a Myc epitope (protein, UniProt Q13105 1-803) MDFPQHSQHVLEQLNQQRQLGLLCDCTFVVDGVHFKAHKAVLAACSEYFKMLFVDQKDVVHLDISNAAGLGQVLEFMYTAKLSLSPENVDDVLAVATFLQMQDIITACHALKSLAEPATSPGGNAEALATEGGDKRAKEEKVATSTLSRLEQAGRSTPIGPSRDLKEERGGQAQSAASGAEQTEKADAPREPPPVELKPDPTSGMAAAEAEAALSESSEQEMEVEPARKGEEEQKEQEEQEEEGAGPAEVKEEGSQLENGEAPEENENEESAGTDSGQELGSEARGLRSGTYGDRTESKAYGSVIHKCEDCGKEFTHTGNFKRHIRIHTGEKPFSCRECSKAFSDPAACKAHEKTHSPLKPYGCEECGKSYRLISLLNLHKKRHSGEARYRCEDCGKLFTTSGNLKRHQLVHSGEKPYQCDYCGRSFSDPTSKMRHLETHDTDKEHKCPHCDKKFNQVGNLKAHLKIHIADGPLKCRECGKQFTTSGNLKRHLRIHSGEKPYVCIHCQRQFADPGALQRHVRIHTGEKPCQCVMCGKAFTQASSLIAHVRQHTGEKPYVCERCGKRFVQSSQLANHIRHHDNIRPHKCSVCSKAFVNVGDLSKHIIIHTGEKPYLCDKCGRGFNRVDNLRSHVKTVHQGKAGIKILEPEEGSEVSVVTVDDMVTLATEALAATAVTQLTVVPVGAAVTADETEVLKAEISKAVKQVQEEDPNTHILYACDSCGDKFLDANSLAQHVRIHTAQALVMFQTDADFYQQYGPGGTWPAGQVLQAGELVFRPRDGAEGQPALAETSPTAPECPPPAE	–	binds	binds	binds
